Results reported in ChEMBL document CHEMBL4888484, “Replenishing the malaria drug discovery pipeline: Screening and hit evaluation of the MMV Hit Generation Library 1 (HGL1) against asexual blood stage Plasmodium falciparum ,using a nano luciferase reporter read-out” (2022).
Screen size: about 150,000 compounds; about 540 (0.36%) showed an effect of 50% or more. This is one part of the list.

The compounds below were run on Plasmodium falciparum (assay: Primary screen in NF54 nanoGlo assay, in single point, at 2uM, 72h; a lower Z score goes with more inhibition). Settings: timepoint 72 hour.
Assay type: functional, Erythrocyte

Compound	% Inhibition	Z score
COCc1cccc(CC(=O)N2CC3(CCC3)[C@@H]2C2CC2)c1	-4%	0.46
CCCc1nc(CS(=O)(=O)[C@@H](C)C(N)=O)cs1	-4%	0.41
CC1CC2CCCCC2N1C(=O)Nc1ccc(Cl)cc1 (centres undefined)	-1%	0.13
CCOC(=O)c1cc(C2CC2)nc2c1c(=O)n(CC(=O)Nc1ccc(Cl)cc1)c(=O)n2C	12%	-1.64
Cc1nnc(-c2ccc3ccn(CC(=O)N4CCCCC4)c3c2)o1	5%	-0.54
CCNC(=NCCc1csc(N2CCCC2)n1)NCC	-3%	0.58
O=C(C1CC1)[C@@H]1CN(CC(=O)N2CCOCC2)CCO1	-7%	0.95
CCN(Cc1ccccc1OC(F)F)S(C)(=O)=O	-4%	0.45
O=C(CN1CC2CCCCC21c1ccccc1)NC(=O)NCC(F)(F)F (centres undefined)	-2%	0.35
O=C(CCn1cnc2cc(S(=O)(=O)N3CCCC3)ccc21)N1CCOCC1	-18%	1.81
Cc1sc(-c2nnc(C(=O)N3CCCC3)o2)cc1S(=O)(=O)NC1CCCCCCC1	-13%	1.81
O=C(c1ccc2c(c1)OCCO2)N1CCN(Cc2ccncc2)CC1	-1%	0.27
Cc1csc(CCNC(=O)c2ccco2)n1	-14%	1.86
CN(C[C@@H]1C[C@@H](O)CN1)c1ccnc(C(N)=O)c1	-14%	1.41
O=C([C@@H]1CCCCn2nnnc21)N1CCC(Oc2cccc(F)c2)CC1	-20%	2.09
COc1ccc(-c2noc(NCCN3CCN(c4cccc(Cl)c4)CC3)n2)cc1	9%	-1.2
CC1(C)CN(C(=O)c2cccc(CN3CCS(=O)(=O)CC3)c2)c2ccccc21	-1%	0.15
COc1nc(C)ccc1OCc1nnc(C)s1	5%	-0.61
CCCS(=O)(=O)NC[C@H](C)N1CCn2nc(CNC(C)=O)cc2C1	1%	-0.15
CCNC(=O)CNC(=O)Nc1cnn(C(C)C)c1	35%	-0.6
CCOC(=O)[C@H]1CC[C@@H](C)N(Cc2nonc2C)[C@H]1C	-1%	0.15
Cc1nsc(C(=O)NC(C)(C)c2cn(C)nn2)c1N	6%	-0.93

Compound	% Inhibition	Z score
O=C(N[C@H]1C[C@H]2OCC[C@@H]12)C(=O)c1ccccc1	-7%	1.21
O=C(c1cccnn1)N1CCN(CCc2ccc(Cl)c(Cl)c2)CC1	-6%	0.66
CC(C)(C)c1nnc(NCc2cccnc2)nc1O	5%	-0.8
CC1CC(C(=O)NC(COc2ccccc2F)C(C)(C)C)CCC1=O (centres undefined)	-13%	1.36
CN(Cc1cc2cc(F)ccc2[nH]1)C(=O)N[C@H]1CCS(=O)(=O)C1	-8%	1.51
O=C(NCCNc1cnccn1)c1cccs1	1%	-0.17
Cn1cc(C(=O)N2CCC[C@H](C(=O)Cc3ccccc3)C2)c2ccccc21	-1%	0.12
O=C(NC1CCN(Cc2ccccc2)CC1)c1ccc2c(c1)N(CC(=O)N1CCCC1)C(=O)CO2	9%	-1.17
OCc1ccc(Cl)c(NCc2cnc(-c3ccccn3)s2)c1	8%	-0.99
CCc1nc(Cn2ccnc2-c2cccc3nonc23)no1	5%	-0.84
N#CCCN(CCC#N)C(=O)C1CC1c1ccc(F)cc1F (centres undefined)	-14%	1.78
COc1cc2c(OC)c3ccoc3nc2cc1O	-12%	2.38
COc1ccc(OC)c(NC(=O)Cn2cc(-c3nc(C)no3)ccc2=O)c1	-11%	1.96
CCn1c(C(=O)NC2CC2)cc2cc(S(=O)(=O)N(C)C)ccc21	-8%	1.37
CC[C@@](C)(CO)NC(=O)C1=CCCCO1	-4%	0.57
CCOCCC(=O)N[C@H]1CCC(=O)N(C)C1	-10%	1.46
Cc1noc(C)c1-c1nc2cc3c(cc2[nH]1)OCCCO3	-8%	1.07
COc1ccc([C@H]2OCC[C@@H]2NC(=O)c2c(F)cccc2F)cn1	-6%	0.98
O=C1CCC(C(=O)NC(c2ccc(Cl)cc2)C2CCCC2)N1 (centres undefined)	-5%	1.03
Cc1ccc(NCC(=O)n2c(C)c(C)c3ccccc32)c(C)c1	6%	-1.22
Cc1ccc(S(=O)(=O)Nc2nc(C)cc(=O)[nH]2)cc1	-15%	1.95
CCn1cc(-c2nc(C)c(C(=O)NCc3cc(F)cc(F)c3)s2)c2cccnc21	-4%	0.67

Compound	% Inhibition	Z score
C[C@H](NCCN1CCCC1=O)c1ccc(S(C)(=O)=O)c(F)c1	-10%	1.1
Cc1cc(OCc2nc(CC(=O)N[C@@H](C)c3ccccc3)cs2)ccc1Cl	-2%	0.35
COC[C@@H]1CCC[C@@H]1NC(=O)Cc1cccnc1	-7%	1.13
Cc1ccc(S(=O)(=O)N2CCC[C@H]2c2ncc[nH]2)c(Cl)c1	-8%	1.06
CCc1ncc(-c2nc(-c3ccncc3)no2)cn1	-14%	1.69
Cc1ccc(-n2nc3c(N4CCC[C@H](C(=O)NCCN5CCOCC5)C4)nnc(C)c3c2C)cc1	0%	0.05
COC(=O)[C@H]1CCc2cnn(Cc3nnc(-c4cccc(OC)c4)o3)c2C1	-16%	2.5
CC(C)(C)n1ncc2c(-n3cnc(C(N)=O)c3)ncnc21	-1%	0.13
CCn1nccc1-c1cccc(-c2noc(-c3ccccn3)n2)c1	10%	-1.17
CCN(C(=O)OC(C)(C)C)c1ccncc1	0%	0.02
Cc1ccc(C(C)NC(C)C(=O)NC(=O)NCC(F)(F)F)o1 (centres undefined)	-16%	2.02
CC(C)CCc1noc(CN2C(=O)c3ccccc3C2=O)n1	-4%	0.56
CC(NC(=O)NC1CCCCC1CO)C(C)(C)CN(C)C (centres undefined)	-10%	1.24
CN(CCn1cnc2ccccc2c1=O)Cc1ccccc1Br	-20%	2.01
COC(=O)[C@@H](C)CNC(=O)Nc1cc(F)c(F)cc1Cl	21%	-2.42
CCCCNC(=O)N1CC(CO)CC1CO (centres undefined)	3%	-0.73
COC(=O)c1ccc(N2CCC(F)(c3cccc(OC)c3)CC2)nn1	-4%	0.64
Cc1ccoc1C(=O)NC1CCN(CC(=O)Nc2ccncc2)CC1	2%	-0.25
Cc1ccccc1C(=O)NC[C@@H](c1ccc(N(C)C)cc1)N1CCOCC1	10%	-1.02
CN(C)C[C@H]1C[C@H](CO)CN(C(=O)c2ccccc2OCc2ccccc2)C1	-1%	0.16
O=C(NCc1ncc[nH]1)[C@H]1CCC(=O)N(C2CCCCCC2)C1	-14%	1.3
Cc1[nH]nc(C(=O)NC2CC(C)(F)C2)c1C (centres undefined)	-4%	0.41

Compound	% Inhibition	Z score
Cc1oc(C(C)(C)C)cc1-c1nc([C@H]2CCC(=O)NC2)no1	-2%	0.32
Cc1c(C#N)nn(-c2cccnc2)c1NC(=O)c1ccc(Cl)c(Cl)c1	-8%	0.85
COc1ccc([C@H]2CC(=O)Nc3c2cnn3Cc2cccs2)cc1	-3%	0.35
COc1ccc(CNC(=O)C2=NO[C@@H](Cc3nc4ccccc4o3)C2)cc1	-11%	1.2
O=C1CCC2(CCN(Cc3cc(Cl)ccc3F)CC2)CN1C1CC1	-5%	0.98
O=C(NC[C@H](O)CN1CCCC1=O)c1cc(-c2ccccc2)nc2ccccc12	-12%	1.82
Cc1cccc(Nc2nc3c(s2)CCC3)c1	32%	-3.57
C=CCn1c(=O)c2sc(N(CC)CC)nc2n(CC(=O)Nc2ccc(C)c(F)c2)c1=O	-9%	0.79
Cc1nc2ccc(F)cc2c(=O)n1CC(=O)N1CCN(c2ccccn2)CC1	-4%	0.57
CCC(CC)N(CN1C(=O)NC2(CCCCC2)C1=O)C1CC1	3%	-0.62
CC(NC(=O)CCC1CCCCC1)C1CCCO1 (centres undefined)	-9%	0.79
CCCN1CCN(C(=O)c2ccnc(N3CCN[C@H](c4ccccc4)C3)c2)CC1	-13%	1.36
CN(Cc1ccccc1)c1cnn(CCC(N)=O)c(=O)c1	-11%	1
CCc1nc(N(CCC(=O)N2CCOCC2)Cc2ccco2)c2cc(Cl)cc(Cl)c2n1	-5%	0.74
Cc1cccc(NC(=O)NCC2(CS(C)(=O)=O)CC2)c1Cl	-1%	0.12
Cc1ccc(S(=O)(=O)N2CC[C@H](n3ccnn3)C2)s1	-19%	3.27
COCCCC1(CNCc2noc3c2CCCC3)CCC1	0%	0.07
Cc1ccccc1-c1noc(-c2cc3n(n2)C[C@@H](c2ccccc2)OC3)n1	-6%	0.72
C[C@H]1CCCN(CCNS(=O)(=O)Cc2cc(Cl)ccc2F)C1	-10%	1.42
O=C(O)C1(n2cnnn2)CCC(c2ccccc2)CC1 (centres undefined)	-2%	0.25
O=C(Cc1nnc(-c2ccccc2)o1)NCCC1=CCCCC1	0%	0.01
